The chains are these.
B1: chr12:54651456:54651457:-_ENSG00000094916_ENST00000209875|hu_hu|motif|central (ssRNA)
RNA: GGGAGUUCUACAGUCCGACGAUCUGUCAGCUGUCCGCUUGGUUUUCUUUCCCAUGUCGCACACCGUUCCACCUGAAAGACGGAGGCCACCAGGUCCCCGGGAUUGAGAGUGAUCACUCACGCUAACGUCUGCCCUGUUCCUGUCAACAGAGGAUUGAGCAUCA
B2: chr14:76904430:76904431:+_ENSMUSG00000022010_ENSMUST00000022587|mus_mus|mus_mus_mus_hu_True|28_98 (ssRNA)
RNA: GGGAGUUCUACAGUCCGACGAUCUGCAGCCAAAAACAGAGAGAGGGAAAAAAAGAGGGAACACCAGCAGCCUUGUAUAAGCUAGAUAAAAUCUUCUGGCUUUCCGCAGCUCAGGGCGAAACAGAAAACGGCAGCCCUAAUUUACAACAGAGGAUUGAGCAUCA
B3: chr4:95585729:95585730:+_ENSG00000163110_ENST00000317968|hu_mus|FALSE|FALSE (ssRNA)
RNA: GGGAGUUCUACAGUCCGACGAUCAAAGGUAAGACCAAUGAUAAGAGCAAAGCAAGUACACUCACUAAACAGAAAAGUUACUGCCUACUCAUAAAAUUUAUUUAGAUUUCUACUUACUAUUUUAAAGAUAAAAUGGUUUUAUUACAACAGAGGAUUGAGCAUCA
B4: chr4:123027775:123027776:-_ENSMUSG00000028649_ENSMUST00000154824|mus_mus|motif|central (ssRNA)
RNA: GGGAGUUCUACAGUCCGACGAUCUUAUCUUGCUGAUAUAGCAAGUCAAGUUUAUAAAGAAGAUGCAUUUAGGAAUAAUCCGGAAAGAUAAAGCAGGUUUAUAACCCUGCACCACAUGAAACCCUAUUUAGAGGCUUUUCUUUUCAACAGAGGAUUGAGCAUCA
B5: chr7:25763974:25763975:-_ENSMUSG00000040907_ENSMUST00000080882|mus_mus|FALSE|FALSE (ssRNA)
RNA: GGGAGUUCUACAGUCCGACGAUCUUUCUCCACCCAACCCCCGGGGUUCCUGCGCAGGAUGAGUUUGCGAAUCUCAUCAUAGACGAAGAUGAGGAAACUGUAGGGGAAGGCACAGAACCACCAGCUGGGCUUGAGAGGGUACAUCAACAGAGGAUUGAGCAUCA
B6: chr15:59323432:59323433:+_ENSG00000157450_ENST00000557998|hu_hu|FALSE|FALSE (ssRNA)
RNA: GGGAGUUCUACAGUCCGACGAUCCACAGUAUCAGAAUCUCCAAAAUGCAGACUAGAUGAAGGAGAAGAAAGACAAUCACUAAAAGAGGAAUCAUUAUCUUCAUCACUUGGUGUCCCUAGGUGUUGCCUCAGUCCUAAUAUUCCCAACAGAGGAUUGAGCAUCA

The other results are listed elsewhere or left out.

The target of this experiment is T1, UNK ZnF1-3 (human, UniProt Q9C0B0 31-174).
T1 sequence: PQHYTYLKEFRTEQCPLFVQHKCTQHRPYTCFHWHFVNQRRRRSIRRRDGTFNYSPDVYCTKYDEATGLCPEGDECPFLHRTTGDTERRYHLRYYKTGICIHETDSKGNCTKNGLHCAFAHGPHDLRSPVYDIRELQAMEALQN
Briefly: nsRBNS (natural sequence RNA bind-n-seq); RBNS binding buffer (assumed for nsRBNS): 25 mM Tris pH 7.5, 150 mM KCl, 3 mM MgCl2, 0.01% Triton X-100, 500 ug/ml BSA, 20 U/ml SUPERase-In, 4 C; UNK is unkempt and MSI1 is Musashi-1; names of the RNAs are library labels; protein concentration not given here; high values mean tight binding.
On to B1, for which the binding signal was 1.12 enrichment R.

As to B2, the binding signal was determined as 2.7 enrichment R.

B3 showed a binding signal of 1.62 enrichment R.

The molecule B4 came in with a binding signal of 0.605 enrichment R.

The molecule B5 had a binding signal of 1.08 enrichment R.

For the molecule B6, the binding signal was determined as 1.9 enrichment R.
